Measurements from the RNAGym collection of RNA variant scans (doi:10.7554/elife.90254).
Read counts are not given, so values of variants with three or more changes are uncertain.

B1: LINE1-mini (parent)
chain: GGCAGAGCUCAACACAGCGUGGCAAAGUGGCUGUGGCUAGACUGCC

Variants of: B1
Assay: self-cleavage, relative activity (ratio to wild type); higher = more cleavage; in vitro, sequencing; the parent is a self-cleaving ribozyme

Variant | self-cleavage
C15A U20G A39U | 0.1
U9C U38G C46G | 0.01
A6G G17A U43C | 0.03
G5U C13A C18A C23G | 0.15
A4G C13A G22C A25G G27C C37U A39C | 0
G2A G30U U38C C46U | 1.07
A6U C15U U34G | 0.3
G17A A25C C45A | 0.09
C3G A14G G21C G33U G36C | 0.05
C10A G17A G22A G36U C42G | 0.01
G1C A4C G19U U20G U43C | 0.03
G1A G7C U38C G44A | 0.54
C8U U9A G17A C42A G44C C46G | 0.15
A26U G35U C45A | 0.13
G7A U9A C31U | 0.04
G5U U20C G22C | 0.04
G7U C8U A12G A14U A25G | 0.09
U9C G17U G21A | 0.02
G17U C31A G36C | 0.21
C13U G19U U32A U34G | 0.03
C15A G30U A41U C42A C45G | 0.01
G19A C31G A41U C42U | 0
C13A U34C C46G | 0.03
G21C A24U A39U G40A | 0.07

Variant | self-cleavage
G7C C10U G40A | 0.04
G21C G22C U28G | 0.07
C3A A6G G27C U43A | 0.06
C23U G29U G36C | 0.05
G1C A14U G21U G36C C37U | 0
C15G C31G A41U C45G | 0.01
C18G U20A G35A C46G | 0.02
U20A G29A U32A A41C | 0.02
G2A G17U A26G U43A | 0.21
G2A A4C A25C | 0.18
U20G G33U U34G | 0.04
C15A G19A G21A A25G | 0
U32G U38G A39U G44A C45U | 0.04
C3U G7U C8U A14U A16C G22U | 0.15
A4G U34C C45U | 0.04
G2A A12U A14G G21U G33A C37A | 0.03
A4C G22U C23A G35U U38A C46U | 0.01
G5C A6C A14U A16U G29A | 0.14
A12U U20A G22A | 0.24
G5A C23G G36U U43G | 0.04
G5U A6G C8G C23U G27U U34C G40A | 0.01
C15G G33U U34A U38A U43C | 0.01
A14C U20A C37U | 0.06
C3A G17U A24U G36A | 0.16

Variant | self-cleavage
U9A G19A G30U | 1.12
G2C C15G G17A C23U C37A C46A | 0.05
A14U G19U A24C | 0.12
G2U A4U A6G A14G G17A G29U G30A | 0.03
G21A G40U U43A | 0.18
G1U A11C G27A | 0.03
C3G C13G C15A A24G G30U G44U | 0.1
C10U A11U G19C C23A U32C G44A | 0.01
C3U C10U U34C | 0.06
C3G G30A G44C C46G | 0.58
A4U U9A C42G C45U | 0.17
G19U G22A G30U G44U C45A | 0.07
C13U G17C A25C | 0.11
C3G C8A C18U U32C | 0.02
G5U U38C G44A | 0.03
C31G U34G U43G | 0.02
G7U C10G C13U | 0.03
A4U G7C G27U | 0.33
U9C C15A C18U G21U U32C A39C | 0.03
A4U G17A A39G | 0.04
C10U A26C G35A | 0.08
G19U U28A A39G | 0.1
G2A A26U G44C C45U | 0.14
G7A C23U U38G | 0.01

Variant | self-cleavage
C3G U9C A12C G33A | 0.02
G2U G22U C45U | 0.07
A12U A39C G44A | 0.03
G22U U28G C45G | 1.23
G5C C8A C23G | 0.11
G2C G7C C8A | 0.07
G30A C31U U32G | 0.07
G27U U28A A41U | 1.66
C18U U28C C37G G44A | 0.06
C18U G22C G30A | 0.95
A6U C8G G29C C42A | 0.03
C10A U20G A26U C45U | 0.01
A26G U32G U38C | 0.12
G2A G27C G36A | 0.29
C18G G19U U38C | 0.17
G7U C10A U28A | 0.02
A11U G22C G30A | 0.28
G1U C10A U34C G44A | 0.01
C10A U38G C45U | 0.07
C8A C13A G33C | 0.14
C3A A4C A26C | 0.25
A4G A12G G22U G33A G44U | 0.03
U20G A39C A41C | 0.05
G21A G29C G35U G36C A39U | 0.05

Variant | self-cleavage
A6G A14U C31U A41C C45A | 0.01
C3U G7A U28G G36U | 0.03
G2C C10G G17C G36U | 0.02
G2C G33C C42A C45U | 0.06
A6G U9G A12C C13U C31A | 0
G17A C18G C31U | 0.13
C3A U28C C46U | 0.29
C3A G5U C10U C13U A16U A26G G36C | 0.05
A4C U20C C45A | 0.02
C18A A26U A39C | 0.02
C8G A16C C18G U38G C46G | 0.04
A4U C15A G17C | 0.06
G5A A24G C37G | 0.02
G1U C15G U28G G35A | 0.01
G2U C10A C46G | 0
U9C G30C U34G G36A | 0
G21U G33A G35U | 0.08
G1U G22U C46A | 2.7
G5A C8A A11U G44C | 0.03
G30A U32G G33A G36U G40A | 0.06
G5A G19A G27A | 0.08
G2C C13U C15A C18A A24U | 0.46
C3A G22C U28G G33C U34A C45A | 0.09
C8U G17U C18A G30C | 0.23

Variant | self-cleavage
A6G A25C C37G A39C | 0.08
A4G A6U C23G | 0.35
C18U G33U U38G C45A | 0.01
G44U C45U C46U | 0.2
G1A A16G U38C | 0.02
U20C A24C G30U | 1.39
G7C A24G U38A | 0.01
A12C C23U A26U C31A | 0.01
G7A C15G A24G G30U G35C | 0.04
U9C A12C C13G G19C G40A A41G | 0
C10A G22C G27C | 0
A4G C18G A26G G30C | 1.28
C8U A12C C18U | 0.01
A12U G27U G33U C37A C46U | 0.01
C15A A16C G21A G44U | 0.14
G1U A4U G35U | 0.01
G1A G21C C23A G35U | 0.08
G2U G19U U32A G33A | 0.01
C8A A12G G21A A25C | 0.04
C3U C10U A26C G27U C31U | 0.09
A16C G19U C23A | 0.04
A6G U28A C42G | 0
G2A A4C U9G U20A C31G G35U | 0.01
U9C C15A G27A | 0.04

Variant | self-cleavage
G2U U9A U28G C31A U32G | 0.02
C3A A26C G35A G36C G40A | 0.1
A26C G29C G35U | 0.02
U9A A14U C31G | 0.01
C10A A25G U28G U38C | 0.12
A16G G27U G44C | 0.19
U9G C15G G22C G36C | 0.02
G2C C31A A41U C45A | 0.02
G2A C10G U28G A39U | 0.03
C8A A11U G27U G36U | 0.01
U9A A16C C45U | 0.01
C3G G5U U20A A26G G30A C42U | 0.11
G27U G40U C42A | 0.14
A4G G5A C10A G21A A24C G27A C42U U43G | 0.01
G17A C37U U38A C42U U43G | 0.12
A25U G40U G44A | 0.05
G17A G21A G40C | 0.02
G5A C8A U28C G35U | 0.08
C15U G22A G30A A41G U43A | 0.04
G7U U28C G29U C31A U34A | 0.03
G7A G22A U34G C42U | 0.15
C3A A11U G44C | 0.04
G1U G5U A26G | 0.08
